# Earlier results as cited in patent publication US4092420A, “Novel soft N-chloroamino alcohol derivatives exhibiting antibacterial activity” (INTERx Research Corporation, priority 1977, dated 1978).
# Tests used:
# [1] = prior art; cited from earlier work
# [2] = prior art; cited from earlier work; remark: listed apart in the source
Structure (SMILES),Toxicity [1],Stability (decomposition / disproportionation) [2]
ClN(Cl)Cl [NCl3],well-known toxic material,–
COC(=O)CN(C)Cl [methyl N-chlorosarcosinoate],–,explosive decomposition upon isolation
